Experimental data taken from patent publication US6034212, “SH3 kinase domain associated protein, a signalling domain therein, nucleic acids encoding the protein and the domain, and diagnostic and therapeutic uses thereof” (The Rockefeller University, dated 2000).

Target: TrpE alone (Escherichia coli (strain K12), UniProt P00895)
Experiment: Western ligand blot with 35S-methionine labeled GST-YES-SH3
Procedure: FIG. 5. Binding between YAP65 and Yes in vitro. (A) TrpE-YAP65 fusion protein (2,4,5,6,7) or TrpE alone (1,3) were probed on Western blots with ^35S-methionine labeled GST-Yes-SH3 alone (2) or with radioactive GST-Yes-SH3 supplemented with 10 µM of cold GST-Yes-SH3 (4); Lane 5 is as in lane 2 but the incubation was in the presence of SPLAP peptide (200 µM); lanes 6 and 7, the binding was competed with 50 µM and 200 µM of the PLAP peptide, respectively. The arrow indicates partially purified TrpE-YAP65 fusion protein. Lower migrating protein bands represent products of proteolytic degradation. Even if an increased concentration of protease inhibitors and careful purification protocols were used, we always observed limited degradation of the TrpE-YAP65 protein. Equal amounts (8 µg) of TrpE-fusion protein or TrpE protein were loaded into each lane of the SDS-polyacrylamide gel and transferred to nitrocellulose. (B) Differential binding of ^35S-labeled TrpE-YAP65 fusion protein to various fusion proteins containing SH3 domains. Before the Western transfer, we had loaded equal amounts (1 µg) of purified proteins into each lane of the SDS gel. An SDS-polyacrylamide gel was run in parallel and stained with Coomassie Blue to confirm equal concentrations of the purified proteins. […]

B1: GST-SH3-Yes fusion protein (other)
chain: GGVTVFVALYDYEARTTDDLSFKKGERFQIINNTEGDWWEARSIATGKTGYIPSNYVAPADS
modifications: 35S-methionine labeled when used as probe
B1: no binding.
